The values below come from patent US20120014957A1 (AbbVie / Abbott, published 2012).

In one assay the target is T1, Recombinant Human PlGF (human, UniProt P49763-2 21-149, limits assumed).
T1 construct: Bought reagent; also called P1GF
T1 sequence (looked up): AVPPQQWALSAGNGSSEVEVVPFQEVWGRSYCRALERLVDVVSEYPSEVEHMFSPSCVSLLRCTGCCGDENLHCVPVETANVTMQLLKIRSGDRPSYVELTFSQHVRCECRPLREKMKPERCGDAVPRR
As to the kind of experiment: SPR (Biacore). As to the method:
(§1) The BIACORE assay (Biacore, Inc, Piscataway, N.J.) determines the affinity of antibodies or DVD-Ig with kinetic measurements of on-rate and off-rate constants. Binding of antibodies or DVD-Ig to a target antigen (for example, a purified recombinant target antigen) was determined by surface plasmon resonance-based measurements with a Biacore® 1000 or 3000 instrument (Biacore® AB, Uppsala, Sweden) using running HBS-EP (10 mM HEPES [pH 7.4], 150 mM NaCl, 3 mM EDTA, and 0.005% surfactant P20) at 25° C. All chemicals were obtained from Biacore® AB (Uppsala, Sweden) or otherwise from a different source as described in the text. For example, approximately 5000 RU of goat anti-mouse IgG, (Fcγ), fragment specific polyclonal antibody (Pierce Biotechnology Inc, Rockford, Ill.) diluted in 10 mM sodium acetate (pH 4.5) was directly immobilized across a CM5 research grade biosensor chip using a standard amine coupling kit according to manufacturer's instructions and procedures at 25 μg/ml. Unreacted moieties on the biosensor surface were blocked with ethanolamine. Modified carboxymethyl dextran surface in flowcell 2 and 4 was used as a reaction surface. Unmodified carboxymethyl dextran without goat anti-mouse IgG in flow cell 1 and 3 was used as the reference surface. For kinetic analysis, rate equations derived from the 1:1 Langmuir binding model were fitted simultaneously to association and dissociation phases of all eight injections (using global fit analysis) with the use of Biaevaluation 4.0.1 software. Purified antibodies or DVD-Ig were diluted in HEPES-buffered saline for capture across goat anti-mouse IgG specific reaction surfaces. Antibodies or DVD-Ig to be captured as a ligand (25 μg/ml) were injected over reaction matrices at a flow rate of 5 μl/min. The association and dissociation rate constants, kₒₙ (M⁻¹s⁻¹) and koff (s⁻¹) were determined under a continuous flow rate of 25 μl/min. Rate constants were derived by making kinetic binding measurements at different antigen concentrations ranging from 10-200 nM. The equilibrium dissociation constant (M) of the reaction between antibodies or DVD-Igs and the target antigen was then calculated from the kinetic rate constants by the following formula: KD=koff/kₒₙ. Binding was recorded as a function of time and kinetic rate constants were calculated.
A general note: SPR reads the build-up and loss of mass on a sensor chip optically.

Assay [1] concerns the target T2, Recombinant Human VEGF 165 (human, UniProt P15692-4 27-191).
T2 construct: Bought reagent
T2 sequence (looked up): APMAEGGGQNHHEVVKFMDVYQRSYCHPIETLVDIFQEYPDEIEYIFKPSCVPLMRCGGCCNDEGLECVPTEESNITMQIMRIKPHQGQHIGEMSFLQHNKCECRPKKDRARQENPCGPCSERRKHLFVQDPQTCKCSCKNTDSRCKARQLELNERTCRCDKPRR
Briefly: SPR (Biacore). As to the method: as §1

The target of another assay is Recombinant Human β-NGF (human, UniProt P01138 in part). Briefly: cell-based or functional assay.

Recombinant Human β-NGF, sequence (P01138 122-241 limits assumed): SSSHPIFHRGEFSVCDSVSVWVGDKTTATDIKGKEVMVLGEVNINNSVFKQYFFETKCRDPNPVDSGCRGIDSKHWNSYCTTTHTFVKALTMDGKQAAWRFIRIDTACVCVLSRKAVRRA

B1: DVD1331 (bispecific antibody, human IgG1, kappa)
heavy: EVQLVESGGGLVQPGGSLRLSCAASGFSLTNNNVNWVRQAPGKGLEWVGGVWAGGATDYNSALKSRFTISRDNSKNTAYLQMNSLRAEDTAVYYCARDGGYSSSTLYAMDAWGQGTLVTVSSASTKGPQVQLQQSGAELVKPGASVKISCKASGYTFTDYYINWVKLAPGQGLEWIGWIYPGSGNTKYNEKFKGKATLTIDTSSSTAYMQLSSLTSEDTAVYFCVRDSPFFDYWGQGTLLTVSS[here human IgG1 constant region without letters]
light: DIQMTQSPSSLSASVGDRVTITCRASEDIYNALAWYQQKPGKAPKLLIYNTDTLHTGVPSRFSGSGSGTDYTLTISSLQPEDFATYFCQHYFHYPRTFGQGTKVEIKRTVAAPDIVLTQSPDSLAVSLGERVTMNCKSSQSLLNSGMRKSFLAWYQQKPGQSPKLLIYWASTRESGVPDRFTGSGSGTDFTLTISSVQAEDVAVYYCKQSYHLFTFGSGTKLEIKRTVAAPSVFIFPPSDEQLKSGTASVVCLLNNFYPREAKVQWKVDNALQSGNSQESVTEQDSKDSTYSLSSTLTLSKADYEKHKVYACEVTHQGLSSPVTKSFNRGEC
notes: DVD-Ig; also called DVD1331H; DVD1331L
For B1, in the assay with Recombinant Human PlGF, the Kd is 1400 pM and the koff stood at 0.00028 s⁻¹.

B2: DVD1327 (bispecific antibody, human IgG1, kappa)
heavy: EVQLVESGGGLVQPGGSLRLSCAASGFSLTNNNVNWVRQAPGKGLEWVGGVWAGGATDYNSALKSRFTISRDNSKNTAYLQMNSLRAEDTAVYYCARDGGYSSSTLYAMDAWGQGTLVTVSSASTKGPEVQLVESGGGLVQPGGSLRLSCAASGYTFTNYGMNWVRQAPGKGLEWVGWINTYTGEPTYAADFKRRFTFSLDTSKSTAYLQMNSLRAEDTAVYYCAKYPHYYGSSHWYFDVWGQGTLVTVSS[here human IgG1 constant region without letters]
light: DIQMTQSPSSLSASVGDRVTITCRASEDIYNALAWYQQKPGKAPKLLIYNTDTLHTGVPSRFSGSGSGTDYTLTISSLQPEDFATYFCQHYFHYPRTFGQGTKVEIKRTVAAPDIQMTQSPSSLSASVGDRVTITCSASQDISNYLNWYQQKPGKAPKVLIYFTSSLHSGVPSRFSGSGSGTDFTLTISSLQPEDFATYYCQQYSTVPWTFGQGTKVEIKRTVAAPSVFIFPPSDEQLKSGTASVVCLLNNFYPREAKVQWKVDNALQSGNSQESVTEQDSKDSTYSLSSTLTLSKADYEKHKVYACEVTHQGLSSPVTKSFNRGEC
notes: DVD-Ig; also called DVD1327H; DVD1327L
Consider B2, for which, in assay [1], the Kd stood at 3.2 pM, the koff turned out to be 1.7e-05 s⁻¹ and the kon was found to be 5.2e+06 M⁻¹ s⁻¹.

B3: DVD1317 (bispecific antibody, human IgG1, kappa)
heavy: EVQLVESGGGLVQPGGSLRLSCAASGFSLTNNNVNWVRQAPGKGLEWVGGVWAGGATDYNSALKSRFTISRDNSKNTAYLQMNSLRAEDTAVYYCARDGGYSSSTLYAMDAWGQGTLVTVSSASTKGPQVQLQQWGAGLLKPSETLSLTCAVYGGSFSGYYWSWIRQPPGKGLEWIGEINHSGSTNYNPSLKSRVTISVETSKNQFSLKLSSVTAADTAVYYCARDKWTWYFDLWGRGTLVTVSS[here human IgG1 constant region without letters]
light: DIQMTQSPSSLSASVGDRVTITCRASEDIYNALAWYQQKPGKAPKLLIYNTDTLHTGVPSRFSGSGSGTDYTLTISSLQPEDFATYFCQHYFHYPRTFGQGTKVEIKRTVAAP[here about 200 residues without letters]
In the case of B3, the “N-Terminal VD NGF Inhibition Assay EC50” value in the assay with Recombinant Human β-NGF was determined as 1.1 pM.

B4: DVD1319 (bispecific antibody, human IgG1, kappa)
heavy: EVQLVESGGGLVQPGGSLRLSCAASGFSLTNNNVNWVRQAPGKGLEWVGGVWAGGATDYNSALKSRFTISRDNSKNTAYLQMNSLRAEDTAVYYCARDGGYSSSTLYAMDAWGQGTLVTVSSASTKGPEVQLVESGGGLVQPGGSLRLSCAASGFTFSIYSMNWVRQAPGKGLEWVSYISSSSSTIYYADSVKGRFTISRDNAKNSLYLQMNSLRDEDTAVYYCARDRGDFDAFDIWGQGTMVTVSS[here human IgG1 constant region without letters]
light: DIQMTQSPSSLSASVGDRVTITCRASEDIYNALAWYQQKPGKAPKLLIYNTDTLHTGVPSRFSGSGSGTDYTLTISSLQPEDFATYFCQHYFHYPRTFGQGTKVEIKRTVAAPDIQMTQSPSSLSASVGDRVTITCQASQDITNYLNWYQQKPGKAPKLLIYDASNLETGVPSRFSGSGSGTDFTFTISSLQPEDIATYNCQQCENFPITFGQGTRLEIKRTVAAPSVFIFPPSDEQLKSGTASVVCLLNNFYPREAKVQWKVDNALQSGNSQESVTEQDSKDSTYSLSSTLTLSKADYEKHKVYACEVTHQGLSSPVTKSFNRGEC
In the case of B4, the “N-Terminal VD NGF Inhibition Assay EC50” value with Recombinant Human β-NGF came out at 14.1 pM.

B5: DVD1351 (bispecific antibody, human IgG1, kappa)
heavy: EVQLVESGGGLVQPGGSLRLSCAASGFSLTNNNVNWVRQAPGKGLEWVGGVWAGGATDYNSALKSRFTISRDNSKNTAYLQMNSLRAEDTAVYYCARDGGYSSSTLYAMDAWGQGTLVTVSSASTKGPEVQLVESGGGLVQPGGSLRLSCAASGFSFSSEPISWVRQAPGKGLEWVSSITGKNGYTYYADSVKGRFTISADTSKNTAYLQMNSLRAEDTAVYYCARWGKKVYGMDVWGQGTLVTVSS[here human IgG1 constant region without letters]
light: DIQMTQSPSSLSASVGDRVTITCRASEDIYNALAWYQQKPGKAPKLLIYNTDTLHTGVPSRFSGSGSGTDYTLTISSLQPEDFATYFCQHYFHYPRTFGQGTKVEIKRTVAAPDIQMTQSPSSLSASVGDRVTITCRASQSISSYLAWYQQKPGKAPKLLIYGASSRASGVPSRFSGSGSGTDFTLTISSLQPEDFATYYCQQYMSVPITFGQGTKVEIKRTVAAPSVFIFPPSDEQLKSGTASVVCLLNNFYPREAKVQWKVDNALQSGNSQESVTEQDSKDSTYSLSSTLTLSKADYEKHKVYACEVTHQGLSSPVTKSFNRGEC
As for B5, the “N-Terminal VD NGF Inhibition Assay EC50” value in the assay with Recombinant Human β-NGF is 5.1 pM.

B6: DVD1337 (bispecific antibody, human IgG1, kappa)
heavy: EVQLVESGGGLVQPGGSLRLSCAASGFSLTNNNVNWVRQAPGKGLEWVGGVWAGGATDYNSALKSRFTISRDNSKNTAYLQMNSLRAEDTAVYYCARDGGYSSSTLYAMDAWGQGTLVTVSSASTKGPQVQLQESGPGLVKPSETLSLTCTVSGGSVSSGDYYWTWIRQSPGKGLEWIGHIYYSGNTNYNPSLKSRLTISIDTSKTQFSLKLSSVTAADTAIYYCVRDRVTGAFDIWGQGTMVTVSS[here human IgG1 constant region without letters]
light: DIQMTQSPSSLSASVGDRVTITCRASEDIYNALAWYQQKPGKAPKLLIYNTDTLHTGVPSRFSGSGSGTDYTLTISSLQPEDFATYFCQHYFHYPRTFGQGTKVEIKRTVAAPDIQMTQSPSSLSASVGDRVTITCQASQDISNYLNWYQQKPGKAPKLLIYDASNLETGVPSRFSGSGSGTDFTFTISSLQPEDIATYFCQHFDHLPLAFGGGTKVEIKRTVAAPSVFIFPPSDEQLKSGTASVVCLLNNFYPREAKVQWKVDNALQSGNSQESVTEQDSKDSTYSLSSTLTLSKADYEKHKVYACEVTHQGLSSPVTKSFNRGEC
Turning to B6, the “N-Terminal VD NGF Inhibition Assay EC50” value in the assay with Recombinant Human β-NGF stood at 17 pM.

For orientation: Kd means the free concentration of one partner at which half of the binding sites on the other are occupied at equilibrium, for simple one-to-one binding. What is called koff is the first-order rate constant of dissociation. Usually kon stands for the rate constant with which the complex forms.
